Assay results reported in the supplement of paper PMC6531468.
Some of the results follow. These are enrichments in a pooled selection; single values are uncertain. Scores sum up all selected molecules that hold the word; the word was not tested alone.

How the values were obtained:
Assay in all cases: 6-mer SELEX enrichment z-score vs GST control; IMP3 is the RNA-binding protein IGF2BP3; higher = more enriched by binding
IMP3 RRM1-2 = conditions: construct: RRM1-2 (1-163); SELEX round: R2
Method: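 SELEX-seq with GST-tagged IMP3 RRM1-2 (Met1-Asn163) and an N40 RNA pool, round 2. 6-mer enrichment z-score normalised to GST SELEX. RNA written as DNA (T = U).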

IMP3 full-length = IMP3 full-length (UniProt O00425); conditions: construct: FL IMP3 (1-579); SELEX round: R4
Chain of UniProt O00425 (O00425 whole entry): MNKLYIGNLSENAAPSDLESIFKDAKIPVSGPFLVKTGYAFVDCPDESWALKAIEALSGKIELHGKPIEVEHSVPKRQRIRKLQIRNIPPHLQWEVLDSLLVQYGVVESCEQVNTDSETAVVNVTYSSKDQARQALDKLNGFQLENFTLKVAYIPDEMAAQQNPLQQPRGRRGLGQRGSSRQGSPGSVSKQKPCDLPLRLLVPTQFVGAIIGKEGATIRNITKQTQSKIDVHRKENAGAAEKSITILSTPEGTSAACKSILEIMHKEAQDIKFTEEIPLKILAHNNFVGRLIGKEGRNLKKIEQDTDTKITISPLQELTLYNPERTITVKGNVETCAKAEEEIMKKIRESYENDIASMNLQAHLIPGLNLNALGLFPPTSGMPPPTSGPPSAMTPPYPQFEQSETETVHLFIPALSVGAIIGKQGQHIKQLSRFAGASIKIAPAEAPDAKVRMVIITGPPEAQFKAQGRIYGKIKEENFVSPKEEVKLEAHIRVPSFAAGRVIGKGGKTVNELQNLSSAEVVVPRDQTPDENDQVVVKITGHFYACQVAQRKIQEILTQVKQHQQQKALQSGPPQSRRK
Method: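 SELEX-seq with GST-tagged full-length IMP3 and an N40 RNA pool, round 4. Each 6-mer is scored as an enrichment z-score of sequence tags containing it, normalised to the matching GST SELEX round. RNA written as DNA (T = U).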

IMP3 KH1-2 = conditions: construct: KH1-2 (164-376); SELEX round: R4
Chain of IMP3 KH1-2 (chain, as listed by the source): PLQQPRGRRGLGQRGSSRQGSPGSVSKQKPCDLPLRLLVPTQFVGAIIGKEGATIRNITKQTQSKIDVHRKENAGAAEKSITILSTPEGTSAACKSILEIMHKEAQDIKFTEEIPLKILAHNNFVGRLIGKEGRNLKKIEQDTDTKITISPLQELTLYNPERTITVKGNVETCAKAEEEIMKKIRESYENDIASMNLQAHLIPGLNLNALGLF
Method: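 SELEX-seq with GST-tagged IMP3 KH1-2 (Pro164-Phe376) and an N40 RNA pool, round 4 (stringent 300/600 mM KCl washes). 6-mer z-score of sequence-tag enrichment normalised to the corresponding GST SELEX round; RNA k-mers written as DNA (T for U).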

IMP3 KH3-4 = conditions: construct: KH3-4 (377-579); SELEX round: R4
Chain of IMP3 KH3-4 (chain, as listed by the source): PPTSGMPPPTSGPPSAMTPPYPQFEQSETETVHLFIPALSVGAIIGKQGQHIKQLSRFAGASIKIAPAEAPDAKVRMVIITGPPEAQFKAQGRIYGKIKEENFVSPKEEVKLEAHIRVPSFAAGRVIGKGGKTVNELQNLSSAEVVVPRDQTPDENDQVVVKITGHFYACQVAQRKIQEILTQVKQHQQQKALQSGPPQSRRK
Method: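 SELEX-seq with GST-tagged IMP3 KH3-4 (Pro377-Lys579) and an N40 RNA pool, round 4. 6-mer z-score of sequence-tag enrichment normalised to the corresponding GST SELEX round; RNA k-mers written as DNA (T for U).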

Chain of IMP3 RRM1-2 (chain, as listed by the source): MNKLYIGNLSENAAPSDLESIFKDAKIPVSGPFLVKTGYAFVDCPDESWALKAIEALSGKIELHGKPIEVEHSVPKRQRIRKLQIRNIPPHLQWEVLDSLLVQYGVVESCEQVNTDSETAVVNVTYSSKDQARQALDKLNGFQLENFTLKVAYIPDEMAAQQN

CCACGT
6-mer SELEX enrichment z-score (IMP3 RRM1-2): -0.244 | 6-mer SELEX enrichment z-score (IMP3 full-length): -0.398 | 6-mer SELEX enrichment z-score (IMP3 KH1-2): -0.867 | 6-mer SELEX enrichment z-score (IMP3 KH3-4): -1.01

GGGATA
6-mer SELEX enrichment z-score (IMP3 RRM1-2): -0.185 | 6-mer SELEX enrichment z-score (IMP3 full-length): 0.09 | 6-mer SELEX enrichment z-score (IMP3 KH1-2): 0.512 | 6-mer SELEX enrichment z-score (IMP3 KH3-4): 0.768

CTTAAG
6-mer SELEX enrichment z-score (IMP3 RRM1-2): -0.023 | 6-mer SELEX enrichment z-score (IMP3 full-length): -0.441 | 6-mer SELEX enrichment z-score (IMP3 KH1-2): -0.291 | 6-mer SELEX enrichment z-score (IMP3 KH3-4): -0.028

GGTCCT
6-mer SELEX enrichment z-score (IMP3 RRM1-2): 0.193 | 6-mer SELEX enrichment z-score (IMP3 full-length): -0.036 | 6-mer SELEX enrichment z-score (IMP3 KH1-2): -0.191 | 6-mer SELEX enrichment z-score (IMP3 KH3-4): -0.206

CCTTCT
6-mer SELEX enrichment z-score (IMP3 RRM1-2): 0.143 | 6-mer SELEX enrichment z-score (IMP3 full-length): -0.174 | 6-mer SELEX enrichment z-score (IMP3 KH1-2): 0.315 | 6-mer SELEX enrichment z-score (IMP3 KH3-4): -0.035

GTGTCT
6-mer SELEX enrichment z-score (IMP3 RRM1-2): 0.431 | 6-mer SELEX enrichment z-score (IMP3 full-length): 0.148 | 6-mer SELEX enrichment z-score (IMP3 KH1-2): -0.14 | 6-mer SELEX enrichment z-score (IMP3 KH3-4): -0.004

ATGGGC
6-mer SELEX enrichment z-score (IMP3 RRM1-2): 0.217 | 6-mer SELEX enrichment z-score (IMP3 full-length): 0.338 | 6-mer SELEX enrichment z-score (IMP3 KH1-2): -0.174 | 6-mer SELEX enrichment z-score (IMP3 KH3-4): 0.274

TTTGGT
6-mer SELEX enrichment z-score (IMP3 RRM1-2): 0.572 | 6-mer SELEX enrichment z-score (IMP3 full-length): 0.209 | 6-mer SELEX enrichment z-score (IMP3 KH1-2): 0.121 | 6-mer SELEX enrichment z-score (IMP3 KH3-4): 0.285

GTCACC
6-mer SELEX enrichment z-score (IMP3 RRM1-2): 0.082 | 6-mer SELEX enrichment z-score (IMP3 full-length): 0.152 | 6-mer SELEX enrichment z-score (IMP3 KH1-2): -0.448 | 6-mer SELEX enrichment z-score (IMP3 KH3-4): -0.797

ACAATC
6-mer SELEX enrichment z-score (IMP3 RRM1-2): 2.21 | 6-mer SELEX enrichment z-score (IMP3 full-length): 1.13 | 6-mer SELEX enrichment z-score (IMP3 KH1-2): 0.584 | 6-mer SELEX enrichment z-score (IMP3 KH3-4): -0.097

ATCTTC
6-mer SELEX enrichment z-score (IMP3 RRM1-2): 0.464 | 6-mer SELEX enrichment z-score (IMP3 full-length): 0.339 | 6-mer SELEX enrichment z-score (IMP3 KH1-2): 0.402 | 6-mer SELEX enrichment z-score (IMP3 KH3-4): 0.199

TATCGC
6-mer SELEX enrichment z-score (IMP3 RRM1-2): 0.168 | 6-mer SELEX enrichment z-score (IMP3 full-length): 0.285 | 6-mer SELEX enrichment z-score (IMP3 KH1-2): 0.426 | 6-mer SELEX enrichment z-score (IMP3 KH3-4): 0.352

GGCGGG
6-mer SELEX enrichment z-score (IMP3 RRM1-2): 0.082 | 6-mer SELEX enrichment z-score (IMP3 full-length): 1.18 | 6-mer SELEX enrichment z-score (IMP3 KH1-2): 0.966 | 6-mer SELEX enrichment z-score (IMP3 KH3-4): 0.665

AGCAAC
6-mer SELEX enrichment z-score (IMP3 RRM1-2): 0.903 | 6-mer SELEX enrichment z-score (IMP3 full-length): 0.634 | 6-mer SELEX enrichment z-score (IMP3 KH1-2): -0.488 | 6-mer SELEX enrichment z-score (IMP3 KH3-4): -0.694

GCTCCA
6-mer SELEX enrichment z-score (IMP3 RRM1-2): 0.206 | 6-mer SELEX enrichment z-score (IMP3 full-length): 0.422 | 6-mer SELEX enrichment z-score (IMP3 KH1-2): 0.113 | 6-mer SELEX enrichment z-score (IMP3 KH3-4): -0.183

AGACCC
6-mer SELEX enrichment z-score (IMP3 RRM1-2): -1.41 | 6-mer SELEX enrichment z-score (IMP3 full-length): -1.73 | 6-mer SELEX enrichment z-score (IMP3 KH1-2): -1.38 | 6-mer SELEX enrichment z-score (IMP3 KH3-4): -2.19

GAACCA
6-mer SELEX enrichment z-score (IMP3 RRM1-2): -0.3 | 6-mer SELEX enrichment z-score (IMP3 full-length): -0.882 | 6-mer SELEX enrichment z-score (IMP3 KH1-2): -0.878 | 6-mer SELEX enrichment z-score (IMP3 KH3-4): -1.1

TTAAAA
6-mer SELEX enrichment z-score (IMP3 RRM1-2): -1.32 | 6-mer SELEX enrichment z-score (IMP3 full-length): -1.2 | 6-mer SELEX enrichment z-score (IMP3 KH1-2): 0.124 | 6-mer SELEX enrichment z-score (IMP3 KH3-4): 1.43

TAAATG
6-mer SELEX enrichment z-score (IMP3 RRM1-2): -0.963 | 6-mer SELEX enrichment z-score (IMP3 full-length): -0.637 | 6-mer SELEX enrichment z-score (IMP3 KH1-2): 0.428 | 6-mer SELEX enrichment z-score (IMP3 KH3-4): 1.51

ACGCCC
6-mer SELEX enrichment z-score (IMP3 RRM1-2): -0.866 | 6-mer SELEX enrichment z-score (IMP3 full-length): -0.94 | 6-mer SELEX enrichment z-score (IMP3 KH1-2): -0.641 | 6-mer SELEX enrichment z-score (IMP3 KH3-4): -1.61

GCAAAG
6-mer SELEX enrichment z-score (IMP3 RRM1-2): -0.762 | 6-mer SELEX enrichment z-score (IMP3 full-length): -0.09 | 6-mer SELEX enrichment z-score (IMP3 KH1-2): -0.382 | 6-mer SELEX enrichment z-score (IMP3 KH3-4): -0.171

CTACGA
6-mer SELEX enrichment z-score (IMP3 RRM1-2): -0.618 | 6-mer SELEX enrichment z-score (IMP3 full-length): -0.863 | 6-mer SELEX enrichment z-score (IMP3 KH1-2): -0.765 | 6-mer SELEX enrichment z-score (IMP3 KH3-4): -0.863

AACGTT
6-mer SELEX enrichment z-score (IMP3 RRM1-2): -0.543 | 6-mer SELEX enrichment z-score (IMP3 full-length): -0.933 | 6-mer SELEX enrichment z-score (IMP3 KH1-2): -1.04 | 6-mer SELEX enrichment z-score (IMP3 KH3-4): -0.924

GAGGGG
6-mer SELEX enrichment z-score (IMP3 RRM1-2): -0.102 | 6-mer SELEX enrichment z-score (IMP3 full-length): 0.477 | 6-mer SELEX enrichment z-score (IMP3 KH1-2): 1.87 | 6-mer SELEX enrichment z-score (IMP3 KH3-4): 1.45

CGTTGC
6-mer SELEX enrichment z-score (IMP3 RRM1-2): 0.103 | 6-mer SELEX enrichment z-score (IMP3 full-length): -0.22 | 6-mer SELEX enrichment z-score (IMP3 KH1-2): -0.634 | 6-mer SELEX enrichment z-score (IMP3 KH3-4): -0.665

CAACGT
6-mer SELEX enrichment z-score (IMP3 RRM1-2): -0.324 | 6-mer SELEX enrichment z-score (IMP3 full-length): -0.409 | 6-mer SELEX enrichment z-score (IMP3 KH1-2): -1.24 | 6-mer SELEX enrichment z-score (IMP3 KH3-4): -1.28

GACTTT
6-mer SELEX enrichment z-score (IMP3 RRM1-2): -0.115 | 6-mer SELEX enrichment z-score (IMP3 full-length): -0.258 | 6-mer SELEX enrichment z-score (IMP3 KH1-2): 0.191 | 6-mer SELEX enrichment z-score (IMP3 KH3-4): 0.391

CTCCAC
6-mer SELEX enrichment z-score (IMP3 RRM1-2): 0.285 | 6-mer SELEX enrichment z-score (IMP3 full-length): -0.053 | 6-mer SELEX enrichment z-score (IMP3 KH1-2): 0.092 | 6-mer SELEX enrichment z-score (IMP3 KH3-4): -0.801

TAATTT
6-mer SELEX enrichment z-score (IMP3 RRM1-2): 0.137 | 6-mer SELEX enrichment z-score (IMP3 full-length): 0.278 | 6-mer SELEX enrichment z-score (IMP3 KH1-2): 1.38 | 6-mer SELEX enrichment z-score (IMP3 KH3-4): 2.16

TGCATC
6-mer SELEX enrichment z-score (IMP3 RRM1-2): 0.652 | 6-mer SELEX enrichment z-score (IMP3 full-length): 1.28 | 6-mer SELEX enrichment z-score (IMP3 KH1-2): 0.484 | 6-mer SELEX enrichment z-score (IMP3 KH3-4): 0.264
